Reference: publication PMC12136788
Some of the results follow.

B1: chr5:137520266:137520267:+_ENSG00000112984_ENST00000394894|hu_hu|FALSE|FALSE (ssRNA)
RNA: GGGAGUUCUACAGUCCGACGAUCAUCAAGGCCUGUGUCUGCCUUAGCCCCUUUCUCUAAGCUGGGGGAUACCUGAAGACUAUGUUCCUUGAUGAACGAGUGCAGGGAUGGGAAUCCCAGUUGCAUAGGUGGGGCAUGCACAAGCAACAGAGGAUUGAGCAUCA
B2: chr1:58468927:58468928:-_ENSMUSG00000026034_ENSMUST00000148330|mus_mus|mus_mus_mus_hu_False|18_98 (ssRNA)
RNA: GGGAGUUCUACAGUCCGACGAUCAAUUACUGAAAAAUGAAAGAUGUACCUUAGCUAUGUACUUAAUGAACCAAAUUACCCAAACAAAAUAAACAUGGCAAUAUAAAAAUGUUAAGAAAAUAACUUACUGUACAAAAUAACUUACAACAGAGGAUUGAGCAUCA
B3: 135896134_135898045_2707_3pUTR_ENSMUSG00000039959_ENSMUST00000060311|mouse|control|control (ssRNA)
RNA: GGGAGUUCUACAGUCCGACGAUCCGCGUGAACACACCAUCAGCUCCUCGAACUUCCCUUUGCCUUGGACCACAAGAUCAGCAGCAUCCACCAUGAUGGUAGCUCCCCAACCAACAGCUUUGGAGGCGGAUAUCAGCCCUUCCGCAACAGAGGAUUGAGCAUCA
B4: chr7:141438946:141438947:+_ENSG00000106028_ENST00000265304|hu_mus|hu_hu_hu_mus_True|18_38 (ssRNA)
RNA: GGGAGUUCUACAGUCCGACGAUCGACGAAAUACCUGUAACACAGGUCUUCGAAACAUGGCUUCUGUUUUUCUUACAACCUAAUCUUUAGGCUUUUCCUGACGAUCUGAAAGAAAAGGCCCAGCCACUAAAUCAAGAAACUACACAACAGAGGAUUGAGCAUCA
B5: chrX:71549762:71549763:+_ENSMUSG00000019087_ENSMUST00000019231|mus_mus|mus_mus_mus_hu_False|38_88 (ssRNA)
RNA: GGGAGUUCUACAGUCCGACGAUCAAACCCGUGUACUUCUUAUUGUUACAUCACCCCCACCAGAAAACGAUAACGACAGCCAAGCAGGACAGACAGUCAAGUAGUCUUUCCACACUCCCAAACUCAGGGAGCCCUAUAACCUUACAACAGAGGAUUGAGCAUCA
B6: chr17:4210377:4210378:-_ENSG00000132388_ENST00000396981|hu_mus|FALSE|FALSE (ssRNA)
RNA: GGGAGUUCUACAGUCCGACGAUCAAGUGUAUCUGGAGGACCAAUAAUAAGGACUUCCCAACGAUAGAGAUCAUUGUCGUCUAUUAAACCUGCUGAAAAGCCUUCCACUGGAUUUUUGUUGAGUUCUGCCAGCUGUCUUCGCAGCAACAGAGGAUUGAGCAUCA
B7: chr12:39756943:39756944:-_ENSG00000139116_ENST00000544797|hu_mus|hu_hu_hu_mus_False|38_78 (ssRNA)
RNA: GGGAGUUCUACAGUCCGACGAUCGGUUUGGCUGUUACCCCCAAGGGAAUCCUGCAAUAGUCUUGUUAGCUUAGAGUCUCUGUAAGGGACAUGGGUGGCCCUCUUGCUCUUGUCCCCCAAGGCGCUGAUUACAUUCCCAAGAGCCAACAGAGGAUUGAGCAUCA
B8: chr11:18422405:18422406:+_ENSG00000134333_ENST00000379412|hu_mus|FALSE|FALSE (ssRNA)
RNA: GGGAGUUCUACAGUCCGACGAUCCAGCUUGGAGUUCGCAGUUACACAGUAGUCUUUGCUGGAGACAAUUUUUGGUGUUUUAAGGAAGAGGCUGCCAUGCUGGAGAUCCAUCAUCUCGCCCUUGAGUUUGUCUUCCAUGACGUCCAACAGAGGAUUGAGCAUCA
B9: chr22:32879901:32879902:+_ENSG00000100225_ENST00000397426|hu_mus|hu_hu_hu_mus_False|38_38 (ssRNA)
RNA: GGGAGUUCUACAGUCCGACGAUCCUCUUCCAUACUCAUGGCAUCCUGAAUUGACUCAGCUUCAACAUUUUGACUAGGCCCUUCCAUACUGUCAUCAUUCCAAACACCAAAUGGGGUGGCCUGUCCUUGGGAUGAAUCAGUCCCCAACAGAGGAUUGAGCAUCA
B10: 97129297_97129417_136_5pUTR_ENSMUSG00000030619_ENSMUST00000107234|mouse|control|control (ssRNA)
RNA: GGGAGUUCUACAGUCCGACGAUCUCCCGCCGCCCUCUCGACACUUUGCACCGAGGCGUCGGAUCUGCUGGCUCAGAGGGCAGGGGUUUCCUACGUCCCCCUUCCCCACCAGCGCCUAGAGACGAGGCGGAACUCAAAGGGCUGCAACAGAGGAUUGAGCAUCA
B11: chr3:124456682:124456683:+_ENSG00000114491_ENST00000536109|hu_hu|FALSE|FALSE (ssRNA)
RNA: GGGAGUUCUACAGUCCGACGAUCAUUAUGAUUCGCUGCCACAAAGACAUUCUCCUGAAUAAACCUCUUCACUCUCCCAACUGUCUCAGCAUCAACUUUUUUCUGCUGCUCGAGAAUCUCCAGCAUUUUGGACAAUGUACACACCAACAGAGGAUUGAGCAUCA
B12: chr11:46405157:46405158:+_ENSG00000110492_ENST00000395566|hu_hu|hu_hu_hu_mus_False|48_78 (ssRNA)
RNA: GGGAGUUCUACAGUCCGACGAUCCCCUCCCCACUUUGGGCACUUGGUGUGGGCGUGAAGGCAGGGCCGUGAUUGACAGAGCUGACAAGCAGACAGAAGGCACUGGUGGGUUAUAUCUUGGGCCUGUGGGAGAGGAGGGCUCCGCAACAGAGGAUUGAGCAUCA
B13: chr2:65860617:65860618:+_ENSMUSG00000044647_ENSMUST00000122912|mus_hu|FALSE|FALSE (ssRNA)
RNA: GGGAGUUCUACAGUCCGACGAUCGAUCUGAUUUGGAGUUCCUGGAAUGUGGCUAUCUAUUUGGUAAUACAGAGUUGAAGAGUUGGCAUAAAAAGAAGCAUUCUUUGCAUGGCUUUCGUGAACGGCGGUGCCAUCAGAAUAACACAACAGAGGAUUGAGCAUCA
B14: chr13:21172813:21172814:+_ENSG00000032742_ENST00000351808|hu_mus|motif|central (ssRNA)
RNA: GGGAGUUCUACAGUCCGACGAUCAAUAUUUCCCAUAUUCACUUUCAGUCUUCCUGCAUUGCUAAACAUCUUGUUUUUCACGGUAACUUGGUAUGUGUUCAGUGCUUCUGCAUACAUUUCAUUAGCAGAAUACUGACUGGCCAACAACAGAGGAUUGAGCAUCA

The binders below were run against T1, UNK ZnF1-3 (human, UniProt Q9C0B0 31-174) (assay: nsRBNS (natural sequence RNA bind-n-seq); RBNS binding buffer (assumed for nsRBNS): 25 mM Tris pH 7.5, 150 mM KCl, 3 mM MgCl2, 0.01% Triton X-100, 500 ug/ml BSA, 20 U/ml SUPERase-In, 4 C; UNK is unkempt and MSI1 is Musashi-1; names of the RNAs are library labels; protein concentration not given here; high values mean tight binding).
T1 sequence: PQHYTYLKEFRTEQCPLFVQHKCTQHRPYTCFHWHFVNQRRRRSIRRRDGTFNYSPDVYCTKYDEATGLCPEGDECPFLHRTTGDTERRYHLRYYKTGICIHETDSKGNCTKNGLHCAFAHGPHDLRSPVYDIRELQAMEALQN

Row | Binder | binding signal [enrichment R]
1 | B1 | 0.903
2 | B2 | 1.56
3 | B3 | 1.26
4 | B4 | 0.87
5 | B5 | 1.78
6 | B6 | 0.784
7 | B7 | 0.85
8 | B8 | 0.649
9 | B9 | 0.946
10 | B10 | 0.369
11 | B11 | 0.879
12 | B12 | 2.01
13 | B13 | 1.15
14 | B14 | 0.432
